Measured values from PubChem BioAssay AID1345083 (National Center for Advancing Translational Sciences (NCATS), 2018).
Screen size: about 94,000 compounds; about 6,200 (6.6%) were called active. The inconclusive results got no clear call from the source; some entries with a clear call stand among them for comparison. Calls follow the shape of the dose curve; as a rule, active = well fitted inhibition curve with a large enough effect; inconclusive = small, poorly fitted or top-dose-only effect; inactive = flat fitted curve, though single readings scatter. A potency beside an inconclusive call is a rough fit, not a confirmed value.

Test: Cytotoxic Profiling in HEK 293 Cell Line of Diverse Libraries Using Quantitative High-Throughput Screening; also: nearly all actives have a fitted effect of over 60% in size
Conditions: HEK 293 viability, ATP luminescence (CellTiter-Glo), 48-72 h; activity change, negative = cytotoxicity: at 115 µM (top of the series) unless noted; series mostly up to 115 µM
Method in brief: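 Viability of HEK 293 cells, plated at 250 cells/well, was judged by cellular ATP after compound treatment for 48 or 72 hr. Luminescence was imaged 10 min after CellTiter-Glo addition at room temperature.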
% is scaled to controls: 0 for no effect and ±100 for the full control effect; potency is read from the fitted curve at half-maximal effect; tags tell the direction and shape of the fitted curve.

| SMILES | Potency | activity change, negative = cytotoxicity | outcome |
| --- | --- | --- | --- |
| CC(=O)NC1(C)CCCN(Cc2cc(-c3ccccc3)cs2)C1 (stereo not given) | inconclusive: 89.1 µM [inhibitor, partial curve] |  |  |
| Cn1nc(C(=O)NC2CCN(C(=O)N3CC4CC(C3)[C@H]3CCCC(=O)N3C4)CC2)c2ccccc21 (stereo not given in full) |  | inactive: -3.79% |  |
| CC(C)Oc1ccc2c(NC(=O)[C@H]3CCC(=O)N3)nn(Cc3ccccc3)c2c1 | inconclusive: 39.8 µM [inhibitor, partial curve, poor fit] |  |  |
| COc1ccc(CC(=O)N2CC[C@H]3CC(=O)N(Cc4ccccc4)CC[C@H]3C2)cc1 |  | inactive: -29.3% [at 172 µM] |  |
| CN(C)CCNC(=O)c1nc2nc(-c3ccccc3)c(-c3cccc(CO)c3)cc2n1C | inconclusive: 100 µM [inhibitor, partial curve, poor fit] |  |  |
| Cc1ccccc1C(=O)NC1CCN(c2ccc3nnc(C4CC4)n3n2)C1 (stereo not given) |  | inactive: 4.81% |  |
| CN(Cc1ccc(F)cc1)C(=O)c1ccccc1 | inconclusive: 126 µM [inhibitor, single point] |  |  |
| NCCn1cc(C(=O)NCCS(=O)(=O)N2CCCC2)nn1 |  | inactive: -2.32% |  |
| O=C(c1ccsc1)N1CCC2(CC1)NC(=O)N(Cc1cccc(Cl)c1)C2=O | inconclusive: 35.5 µM [inhibitor, partial curve, poor fit] |  |  |
| Cc1ccc(-c2noc([C@@H]3Cc4nc[nH]c4CN3C(=O)NC3CCCCC3)n2)cc1 |  | inactive: 1.7% [at 172 µM] |  |
| CC(=O)NCc1nnc2n1C(C(=O)NCC(F)(F)F)CC2 (stereo not given) |  | inactive: -29.8% [at 172 µM] |  |
| c1cnc(-c2noc(-c3nc(-c4ccc5c(c4)OCO5)no3)n2)cn1 |  | inactive: 2.07% |  |
| Fc1ccc(-c2cnc3n2C[C@H](CNC2CCCC2)OC3)cc1 |  | inactive: -9.37% [at 172 µM] |  |
| COC(=O)[C@@H]1Cc2c([nH]c3ccccc23)[C@H]2C[C@H](N3CCCCC3)C[C@@H](c3ccccc3F)N21 | inconclusive: 28.2 µM [inhibitor, full curve, poor fit] |  |  |
| N#Cc1cccc(-c2c(C(=O)N3CCOCC3)nc3sccn23)c1 |  |  | inactive |
| Cc1ccc(C(=O)N2CCN(C(=O)c3nnn4c3COC(c3ccccc3)C4)CC2)cc1F (stereo not given) | inconclusive: 56.2 µM [inhibitor, partial curve, poor fit] |  |  |
| CC(C)CNC(=O)C1CCc2sc(C(=O)N3CCCCC3)cc2C1 (stereo not given) |  | inactive: -14.9% |  |
| c1cncc(CN2CC[C@H](c3nnc(Cc4c[nH]c5ccccc45)o3)C2)c1 | inconclusive: 89.1 µM [inhibitor, partial curve] |  |  |
| O=C1NCCCCCCN(C(=O)CC2CCCCC2)[C@H]2C[C@H](c3nc(-c4cnccn4)no3)C[C@@H]12 | inconclusive: 89.1 µM [inhibitor, single point] |  |  |
| Cc1ccc(C(=O)N2CCCC(c3nn(-c4ccc(Cl)cc4)c(=O)[nH]3)C2)cc1 (stereo not given) | inconclusive: 100 µM [inhibitor, single point] |  |  |
